From the antibiotic and cytotoxicity screens of Wong et al. (2023)
The other results are listed elsewhere or left out.

The compounds below were run on S. aureus RN4220 (assay: growth inhibition call (relative growth <= 0.2)). Conditions: 50 µM.

Growth inhibition call, inactive:
CC(C)(C)OC(=O)N1CCNC(=O)C1
COc1ccc(CN(C)C[C@H]2Oc3ccc(NS(C)(=O)=O)cc3C(=O)N([C@@H](C)CO)C[C@@H]2C)cc1
C[C@@H]1CN([C@@H](C)CO)C(=O)Cc2cc(NC(=O)Nc3cccc4ccccc34)ccc2O[C@H]1CN(C)Cc1ccc(Oc2ccccc2)cc1
C[C@@H]1CN([C@@H](C)CO)C(=O)c2cc(-c3cncnc3)cnc2O[C@@H]1CN(C)C(=O)Nc1ccc2c(c1)OCO2
C[C@@H]1CCCCO[C@@H](CN(C)C(=O)Nc2cccc3ccccc23)[C@@H](C)CN([C@H](C)CO)C(=O)c2cc(NS(=O)(=O)c3ccc(F)cc3)ccc2O1
COCC(=O)Nc1ccc2c(c1)C(=O)N(C)[C@@H]1CC[C@@H](CC(=O)N3CCc4ccccc4C3)O[C@H]1CO2
C[C@@H]1CN([C@H](C)CO)C(=O)c2cc(NC(=O)Nc3ccc(C(F)(F)F)cc3)ccc2O[C@@H](C)CCCCO[C@@H]1CN(C)S(=O)(=O)c1ccccc1
CO[C@H](C(=O)[C@@H](O)[C@@H](C)O)[C@@H]1Cc2cc3cc(O[C@H]4C[C@@H](O[C@H]5C[C@@H](O)[C@H](O)[C@@H](C)O5)[C@@H](O)[C@@H](C)O4)c(C)c(O)c3c(O)c2C(=O)[C@H]1O[C@H]1C[C@@H](O[C@H]2C[C@@H](O[C@H]3C[C@](C)(O)[C@H](O)[C@@H](C)O3)[C@H](O)[C@@H](C)O2)[C@H](O)[C@@H](C)O1
C[C@H](O)C#Cc1ccc2c(c1)O[C@H](CN(C)C(=O)CN(C)C)[C@H](C)CN([C@@H](C)CO)S2(=O)=O
Cc1noc(C)c1S(=O)(=O)Nc1ccc2c(c1)C(=O)N([C@H](C)CO)C[C@H](C)[C@H](CN(C)Cc1ccc(C(=O)Nc3ccccc3N)cc1)OCCCC[C@@H](C)O2
CC1=NN(c2ccccc2)C(=O)C1
